Experimental data published in patent US20230027238A1 (SPECTRUM PHARMACEUTICALS, published 2023).

Target: T1, Chinese hamster ovary (CHO) cell-derived soluble recombinant human G-CSF receptor (human, UniProt Q99062 25-627)
T1 construct: extracellular domain; Immobilised by amine coupling on the sensor chip; also called soluble human G-CSF receptor; R&D Systems 381-050/CF
T1 sequence (looked up): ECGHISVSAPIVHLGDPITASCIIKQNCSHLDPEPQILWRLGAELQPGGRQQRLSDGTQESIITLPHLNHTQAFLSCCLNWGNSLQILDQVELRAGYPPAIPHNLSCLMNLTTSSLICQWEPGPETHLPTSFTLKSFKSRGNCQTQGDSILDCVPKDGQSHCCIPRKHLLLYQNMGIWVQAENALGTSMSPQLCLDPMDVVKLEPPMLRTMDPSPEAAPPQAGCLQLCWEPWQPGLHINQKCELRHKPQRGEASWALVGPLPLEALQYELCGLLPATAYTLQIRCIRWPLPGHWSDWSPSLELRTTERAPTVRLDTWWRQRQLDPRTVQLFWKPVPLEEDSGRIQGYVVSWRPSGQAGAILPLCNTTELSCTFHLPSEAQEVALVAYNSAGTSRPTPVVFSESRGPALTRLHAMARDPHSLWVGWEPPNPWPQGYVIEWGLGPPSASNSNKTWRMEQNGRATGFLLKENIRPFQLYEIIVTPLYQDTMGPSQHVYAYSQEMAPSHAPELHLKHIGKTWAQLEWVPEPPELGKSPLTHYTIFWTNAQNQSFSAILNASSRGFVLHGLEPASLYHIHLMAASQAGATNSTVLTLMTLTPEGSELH
Experiment: SPR (BIAcore 3000), receptor amine-coupled to the chip, analyte 5.5-88 nmol/L, 25 °C, 1:1 Langmuir fit

- Kd: 3.6 nM
B1: eflapegrastim (17,65Ser-G-CSF-PEG-Fc protein complex) (Fc fusion)
chain 1: TPLGPASSLPQSFLLKSLEQVRKIQGDGAALQEKLCATYKLCHPEELVLLGHSLGIPWAPLSSCSSQALQLAGCLSQLHSGLFLYQGLLQALEGISPELGPTLDTLQLDVADFATTIWQQMEELGMAPALQPTQGAMPAFASAFQRRAGGVLVASHLQSFLEVSYRVLRHLAQP
chain 2: [in this place human IgG4 Fc]
modifications: N-terminus of only one of the two Fc chains linked to the other end of the PEG; aglycosylated (made in E. coli); amino group of the N-terminus linked to one end of a 3.4 kDa polyethylene glycol (PEG dialdehyde)
notes: also called 17,65S-G-CSF-PEG-Fc; 17,65SG-CSF-PEG-Fc
